Laboratory results reported in patent US20210070829A1 (ZHEJIANG DOER BIOLOGICS, published 2021).

B1: C240 L12F8L12M1 (Fc fusion)
chain: HSQGTFTSDYSKYLDERAAQDFVQWLMNGGPSSGAPPPSGGGGAGGGGAGGGGAA[human IgG4 Fc with S228P N297A (EU numbers) omitted here]GGGGAGGGGAGGGGAAHPIPDSSPLLQFGGQVRQRYLYTDDAQQTEAHLEIREDGTVGGAADQSPESLLQLKALKPGVIQILGVKTSRFLCQRPDGALYGSLHFDPEACSFRERLLEDGYNVYQSEAHGLPLHLPGNKSPHRDPAPRGPARFLPLPGLPPALPEPPGILAPQPPDVGSSDPLSMVGGSQGRSPSYES
B2: C240 L9F7L13M2 (Fc fusion)
chain: HSQGTFTSDYSKYLDERAAQDFVQWLMNGGPSSGAPPPSGGGGSGGGGSGGGGS[human IgG4 Fc with S228P N297A (EU numbers) omitted here]GGGGSGGGGSGGGGSAHPIPDSSPLLQFGGQVRQRYLYTDDAQQTEAHLEIREDGTVGGAADQSPESLLQLKALKPGVIQILGVKTSRFLCQRPDGALYGSLHFDPEACSFRERLLEDGYNVYQSEAHGLPLHCPGNKSPHRDPAPRGPCRFLPLPGLPPALPEPPGILAPQPPDVGSSDPLSMVGGSQGRSPSYES
B3: C240 L13F4L9M1 (Fc fusion)
chain: HSQGTFTSDYSKYLDERAAQDFVQWLMNGGPSSGAPPPSGGGGSGGGGSGGGGSA[human IgG1 Fc with changes omitted here]GGGSGGGGSGGGGSHPIPDSSPLLQFGGQVRQRYLYTDDAQQTEAHLEIREDGTVGGAADQSPESLLQLKALKPGVIQILGVKTSRFLCQRPDGALYGSLHFDPEACSFRERLLEDGYNVYQSEAHGLPLHLPGNKSPHRDPAPRGPARFLPLPGLPPALPEPPGILAPQPPDVGSSDPLSMVGGSQGRSPSYES
B4: C240 L9F2L13M3 (Fc fusion)
chain: HSQGTFTSDYSKYLDERAAQDFVQWLMNGGPSSGAPPPSGGGGSGGGGSGGGGS[human IgG1 Fc with changes omitted here]GGGSGGGGSGGGGSADSSPLLQFGGQVRQRYLYTDDAQQTEAHLEIREDGTVGGAADQSPESLLQLKALKPGVIQILGVKTSRFLCQRPDGALYGSLHFDPEACSFRELLLEDGYNVYQSEAHGLPLHCPGNKSPHRDPAPRGPCRFLPLPGLPPALPEPPGILAPQPPDVGSSDPLAMVGPSQGRSPSYAS
B5: C163 L13F8L13M2 (Fc fusion)
chain: HSQGTFTSDYSKYLDSRAAQDFVQWLMNTGPSSGAPPPSGGGGSGGGGSGGGGSA[human IgG4 Fc with S228P N297A (EU numbers) omitted here]GGGGSGGGGSGGGGSAHPIPDSSPLLQFGGQVRQRYLYTDDAQQTEAHLEIREDGTVGGAADQSPESLLQLKALKPGVIQILGVKTSRFLCQRPDGALYGSLHFDPEACSFRERLLEDGYNVYQSEAHGLPLHCPGNKSPHRDPAPRGPCRFLPLPGLPPALPEPPGILAPQPPDVGSSDPLSMVGGSQGRSPSYES
B6: C271 L9F4L8M2 (Fc fusion)
chain: HSQGTFTSDYSKYLDGRAAQDFVQWLMNTGPSSGAPPPSGGGGSGGGGSGGGGS[human IgG1 Fc with changes omitted here]GSGGGAGGGGSHPIPDSSPLLQFGGQVRQRYLYTDDAQQTEAHLEIREDGTVGGAADQSPESLLQLKALKPGVIQILGVKTSRFLCQRPDGALYGSLHFDPEACSFRERLLEDGYNVYQSEAHGLPLHCPGNKSPHRDPAPRGPCRFLPLPGLPPALPEPPGILAPQPPDVGSSDPLSMVGGSQGRSPSYES

Key:
Test in all cases: cell-based or functional assay
human GLP-1 receptor = human GLP-1 receptor (human, UniProt P43220)
Glucagon receptor = biological target: Glucagon receptor
[1] = biological target: FGFR/β-Klotho receptor complex

| Binder | GLP-1R agonist activity EC50 (luciferase reporter) (human GLP-1 receptor) [nM] | GCGR agonist activity EC50 (luciferase reporter) (Glucagon receptor) [nM] | FGF21 activity EC50 (luciferase reporter) [1] [nM] |
| --- | --- | --- | --- |
| B1 | 1.13 | 1.2 | 0.79 |
| B2 | 1.17 | 1.3 | 0.83 |
| B3 | 1.26 | 1.16 | 0.77 |
| B4 | 1.31 | 1.34 | 1.36 |
| B5 | 1.28 | 1.37 | 0.93 |
| B6 | 1.33 | 1.18 | 0.87 |
